Target: T1, CD98 purified antigen (Homo sapiens, UniProt P08195)
T1 sequence (P08195 1-529): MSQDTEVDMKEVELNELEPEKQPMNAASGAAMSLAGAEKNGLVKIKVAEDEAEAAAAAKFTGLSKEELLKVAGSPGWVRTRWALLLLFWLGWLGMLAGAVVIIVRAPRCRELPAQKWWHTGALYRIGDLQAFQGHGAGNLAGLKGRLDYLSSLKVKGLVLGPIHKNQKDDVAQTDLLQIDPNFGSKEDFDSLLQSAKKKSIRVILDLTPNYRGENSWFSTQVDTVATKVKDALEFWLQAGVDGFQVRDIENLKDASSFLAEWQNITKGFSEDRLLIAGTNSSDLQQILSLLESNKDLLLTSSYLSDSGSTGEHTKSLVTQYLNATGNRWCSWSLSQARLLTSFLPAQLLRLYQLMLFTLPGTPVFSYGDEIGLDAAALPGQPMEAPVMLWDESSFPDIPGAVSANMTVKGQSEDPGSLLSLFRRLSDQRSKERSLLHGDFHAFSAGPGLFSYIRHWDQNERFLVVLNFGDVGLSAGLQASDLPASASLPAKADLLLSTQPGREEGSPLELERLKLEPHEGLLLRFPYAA
Experiment: antigen binding affinity via SPR, CD98
Conditions: Table 7

- Kd: 0.14 nM
B1: IGN523: exemplary anti-CD98 antibody, VH SEQ ID NO: 3, VL SEQ ID NO: 4 (antibody, V domains shown)
VH: MEWSWVFLFFLSVTTGVHSQVQLVQSGAEVKKPGSSVKVSCKASGNAFTNYLIEWVRQAPGQGLEWMGVINPGSGITNYNEKFKGKATITADKSTSTAYMELSSLRSEDTAVYYCSGSANWFAYWGQGTLVTVSS
VL: MSVPTQVLGLLLLWLTDARCDIVMTQSPDSLAVSLGERATINCKSSQSLLYSSNQKNYLAWYQQKPGQPPKLLIYWASTRDSGVPDRFTGSGSGTDFTLTISSLQAEDVAVYYCQRYYGYPWTFGGGTKVEIK
modifications: heavy chain variable region sequence of an exemplary anti-CD98 antibody designated as IGN523; light chain variable region sequence of an exemplary anti-CD98 antibody designated as IGN523

From patent US20190209704A1, “NOVEL ANTIBODY-DRUG CONJUGATES AND RELATED COMPOUNDS, COMPOSITIONS AND METHODS OF USE” (IGENICA BIOTHERAPEUTICS, INC., priority 2014, published 2019)
